Laboratory results taken from the RNAGym collection of RNA variant scans (doi:10.7554/elife.90254).
Read counts are not given, so values of variants with three or more changes are uncertain.

B1: OR4K15 (parent)
chain: GUUAACGGUCAUAGGCCAUGGAAACUAGGAGCACCAUUUCGCUGCCAGUGAAGAAAUGAACAAAGAAAAUCUGGGCCAGGCAGGCAUCAAAAGAAAUAGUCUUGCGCUCAACCAGAAAGUCUGUAAUCAUUUUAAGGGUA

Variants of: B1
Assay: self-cleavage, relative activity (ratio to wild type); higher = more cleavage; in vitro, sequencing; the parent is a self-cleaving ribozyme

Variant | self-cleavage
U12C A30G G31U U97C U139A | 0.49
A78G A111G U127C | 0
A67G A110U A125G | 0.64
A24G A59G A140G | 0.94
C10U A11G A47G A51G A62G A129G U130C G137A | 0.38
U38C U43C C76G U124C U131A | 0.06
U43A A90G A95G | 2.36
A30G U39A U102C | 0.7
A30G A78G U97C G138A | 0.26
A27U G31A C128U U132C | 1.59
U26C U37C A60G A69G A117G | 0.24
U19C A66G A78U U120C | 0.44
A18G U103C A114G | 0.34
A51G G79A U100A | 0.07
A5G A13C A111G A125G | 0
A63G A86C A91U A95G A125G | 0.45
G8A U108C A118G A135U | 0
A18G A30U A68G | 0.92
A52G U100G C101A C109U | 0.02
U72C A82G A92U U120A | 0.06
A5G A18U U124A G137U | 0.48
A23U A55G G93A A96G A116G U122C | 0.95
A55G A67G U127C | 0.73
A47U A60U A68G | 0.96

Variant | self-cleavage
A11G A13G A27G U72C | 0.27
A62G A66G A90G | 0.82
A47G A69G A92G | 0.65
A22G U100C A118G | 1.41
U19C A60U C121U | 2.22
G28U A52G U130C A135G | 0.18
A36G A66G A94G A111G | 0.04
G8C A63U G80A A90G A94U | 0.59
U2C U43A A47U A67G | 1.1
U2C U9A A92G U108C | 0.08
U9A U72C A89G A92G U102A U108A | 0.02
U2C A22U A86G A91G U130G | 0.06
A11C A55C U130C | 1.17
U38A A96G U122C | 0.98
U19C G79A U102C | 0.12
A22U A111G A114G | 0.02
A27G A52G A69U | 1.53
G7A U102C U108C | 0.01
U57G U122C U133A | 0.35
G15A A94G G119A | 1.29
A98U A111G A114U | 0
A69U C101A A111U | 0.02
A18G G41A A56G A95G U102A | 1.88
U43A U49C U100C | 1.94

Variant | self-cleavage
A63G G79A A114G | 0.08
A60G A66G A96G | 0.81
A59G A63U A64G U97A C105U | 0.1
A33G U37C A52G U57A U108C | 0.04
A52G A110U A118G | 1.5
U49C U102C G137U | 1.64
A24G A54G U102C U108A A125G | 0.01
A66U A67G G75C A96C | 0.12
A47U U87C A118G | 0.68
A30U A66G U108C | 0.03
A66U A82U A89C | 0.15
U37C G41A A111G A135G | 0.02
A22G U49A A52G A67C A125G | 0.82
A47G A60G U100A | 0.29
U39A U43C A126G | 0.8
A11G U39C U102C A110G | 0.12
A59U A62G G106C | 0
A24G U38C A59G | 0.91
U26C U39C A78G U130C | 0.15
A13G A64G A116G A118G | 0.08
A11G A67G G75C A140C | 0.16
G50U A116G U122C | 0.7
A51U G99U A114G | 0.06
A23G A95G A118G | 2.2

Variant | self-cleavage
A18G A24G A52G U57C U102C | 0.66
A64U A67G A98G A118U U124C | 0.09
U9A A47G A54U A82C A110U | 0.1
A47G A69G U130G U131C | 0.39
U39C A63G U108C | 0.01
C77A A82G U130C | 0.11
A23G U108C U131C A140G | 0.01
G7A A52G A60G | 1.73
A51G G106A U122C U131C | 0
A52G A67G A91G | 1.23
A5G G80A A86G A110G A111G | 0.02
A22G A30G U72C | 0.28
G73A A118G A129C | 0.02
U12A U43A A66G A126C A129G | 0.6
A56G U70C A110C | 0.15
U2C A89G A114U G137U | 0.08
A18G U39A A62G U103C A125G | 0.38
U2C A4G A78U A89G C105A | 0
A67G U120C U122G | 2.36
A36G A69G U70C A96G | 0.31
A24G G29A A59U U97A | 0.76
A59G A66G A95G A114G A126G U130C | 0.42
A82G G106A A135U | 0.01
U2A U3C A30G C71U U122C | 0.33

Variant | self-cleavage
A69G U87C U127C | 0.46
A59G G75A A96G | 0.21
A51U A62G A78G A82G U97G U130C | 0.22
A22G C32U U122C | 0.59
A36G U39A A62G A63G A78G | 0.34
C16U U39A U108C A134G | 0.03
A51G U57C A68G G80U | 0.37
U2C U12C A51G U72C A114G U120C | 1.18
A18U A51G A56G | 1.06
U12A A54G U57A A111G | 0.09
A78G A94G U108A A117G | 0
C6U U39A U122C | 0.8
U19C A64G U72C | 0.19
C6U A62U U87C | 1.48
U12C A56G U108C | 0.04
A60U U70C U108C | 0.02
A5C U57C G93A A110G | 0.16
A111G A114G A134G | 0.01
A51G A68G A78G U97C A111G U131C | 0.01
A98U U108G A114G | 0.02
U37A U72A A96G | 0.08
U12A A59U A63G U132C | 1.24
A52G A86G U120C A140G | 1.33
U3G A62U A118G | 1.32

Variant | self-cleavage
G7A U9C U12C U97C U139C | 0.85
U12A U37C C107U | 0.02
U2C C6A C71A U102C U127C | 0.48
C25U A92G A134G | 1.23
A23G A59G U70C A126G | 0.31
U38C A111C U124C U131C | 0
U3C C45U U120A | 2.69
A60C U87C A111G | 0.03
A11G C46U A117G | 1.79
A24G A51G A111G U124C U131A | 0
A11G A23G U57C A62U U127C | 0.75
A55G A60G A66G | 0.76
G28A U70C U72A C112G | 0.01
A22G A54G A68G A69U U72C | 0.45
A22G A60U U139C | 1.55
C16U A96G U103C | 1.43
G31A A66G U108C A116G | 0.01
A13G U26A A51U A69G | 1.36
U12A U49A U70C G79A U87A U97A | 0.36
U39C A69U A118G A125G | 0.14
U103C A111G U131C | 0.02
U49G A62G A78U | 0.14
A5G A23G C45U A95G A111G | 0.02
U3C A54G A62G A86G | 1.08

Variant | self-cleavage
U57C A95G A118G | 1.19
A60U A69G U72C G115A | 0.04
C40U U43C A68G A118U | 0.38
A63G G75U U87A | 0.06
C40U U43A U70C A95G G115U | 0.08
A22G U38C A89G A110G | 0.13
U37C A59G U87A U103C | 0.49
A67G A94G U132A | 1.74
A23G U39A U122A | 0.63
A60U C105U U139G | 0.31
U39A A51G A95G | 1.88
A67G U87A A95C | 0.83
A23G U38C A51G A52G U72C A91G | 0.09
A55G A56G A114G U122C | 0.09
A22G A67G A78G A95G U103C U122G U130C | 0.13
U9A A55U A56G A60G A89G | 0.58
A11U A23G U43C | 0.75
A30G U39A U72A U132A | 0.37
C42U A96U U122A | 2.08
A94G U100G A126G | 0.92
A11U A27G A36G U122C | 0.75
U37C U57C A96G | 1.27
A18G U57A U72C | 0.19
